Experimental data as given in article PMC11200990.
No constants are given. Whether binding was seen depends on the method and setting. Binding seen in cells or lysates may run through a third protein. Some results given as binding are weak or reduced against the parent protein; the word gives no strength.

Chains of the proteins cited; added tags and fusions are not shown. Lines headed by an entry give the natural chain unless they say otherwise; changes in a name come on top. Residues count along the entry.
UniProt Q15109, residues 23-404: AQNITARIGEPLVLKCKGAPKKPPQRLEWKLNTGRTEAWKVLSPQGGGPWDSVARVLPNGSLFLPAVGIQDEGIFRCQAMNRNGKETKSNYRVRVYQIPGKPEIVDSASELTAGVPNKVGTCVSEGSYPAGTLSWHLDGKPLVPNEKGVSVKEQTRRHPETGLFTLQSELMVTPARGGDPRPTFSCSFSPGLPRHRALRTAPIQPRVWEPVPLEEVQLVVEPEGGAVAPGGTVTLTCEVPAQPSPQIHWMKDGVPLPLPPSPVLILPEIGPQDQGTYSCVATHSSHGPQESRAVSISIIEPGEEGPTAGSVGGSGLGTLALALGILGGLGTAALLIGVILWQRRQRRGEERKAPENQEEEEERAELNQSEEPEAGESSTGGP
UniProt O60603: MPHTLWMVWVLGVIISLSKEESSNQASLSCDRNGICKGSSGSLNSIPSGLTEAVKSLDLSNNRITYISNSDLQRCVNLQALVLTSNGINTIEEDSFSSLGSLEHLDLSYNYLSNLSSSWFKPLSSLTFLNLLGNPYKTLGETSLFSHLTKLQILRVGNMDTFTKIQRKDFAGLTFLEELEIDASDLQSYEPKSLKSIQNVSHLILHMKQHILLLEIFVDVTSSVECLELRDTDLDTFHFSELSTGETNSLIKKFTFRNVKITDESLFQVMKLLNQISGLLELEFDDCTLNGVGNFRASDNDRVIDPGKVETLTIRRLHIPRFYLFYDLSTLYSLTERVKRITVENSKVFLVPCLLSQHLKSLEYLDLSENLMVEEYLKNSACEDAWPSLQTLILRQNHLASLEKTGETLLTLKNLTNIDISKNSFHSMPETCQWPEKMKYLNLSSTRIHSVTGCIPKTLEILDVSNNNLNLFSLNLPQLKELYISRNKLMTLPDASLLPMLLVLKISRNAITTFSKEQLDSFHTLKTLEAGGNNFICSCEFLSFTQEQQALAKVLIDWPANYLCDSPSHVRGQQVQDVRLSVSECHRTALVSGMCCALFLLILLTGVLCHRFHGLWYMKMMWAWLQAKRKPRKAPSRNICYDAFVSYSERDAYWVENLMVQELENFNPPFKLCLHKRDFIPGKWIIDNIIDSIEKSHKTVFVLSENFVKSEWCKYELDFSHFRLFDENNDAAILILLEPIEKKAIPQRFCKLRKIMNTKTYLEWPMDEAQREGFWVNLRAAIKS
UniProt P09429: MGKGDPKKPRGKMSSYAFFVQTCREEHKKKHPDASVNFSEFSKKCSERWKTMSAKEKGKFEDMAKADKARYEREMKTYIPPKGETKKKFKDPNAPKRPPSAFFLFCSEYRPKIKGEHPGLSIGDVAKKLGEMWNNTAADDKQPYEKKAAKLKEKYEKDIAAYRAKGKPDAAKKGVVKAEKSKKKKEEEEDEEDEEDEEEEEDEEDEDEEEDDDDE
UniProt P05161, residues 1-157: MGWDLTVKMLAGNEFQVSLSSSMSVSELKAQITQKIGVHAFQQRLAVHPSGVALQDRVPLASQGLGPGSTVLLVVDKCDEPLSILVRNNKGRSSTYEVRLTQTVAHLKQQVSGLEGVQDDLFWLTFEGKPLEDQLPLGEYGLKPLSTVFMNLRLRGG

What was measured:
[1] = molecular target: T1, CD11a (integrin receptor LFA-1) (human (endogenous in SCC25 and FaDu)) (UniProt P20701); assay: co-IP; co-immunoprecipitation of extracellular ISG15 or the positive control HMGB1 with CD11a and RAGE (Fig. S6H); cells, constructs and IP antibody not told in the text shown
T1 sequence: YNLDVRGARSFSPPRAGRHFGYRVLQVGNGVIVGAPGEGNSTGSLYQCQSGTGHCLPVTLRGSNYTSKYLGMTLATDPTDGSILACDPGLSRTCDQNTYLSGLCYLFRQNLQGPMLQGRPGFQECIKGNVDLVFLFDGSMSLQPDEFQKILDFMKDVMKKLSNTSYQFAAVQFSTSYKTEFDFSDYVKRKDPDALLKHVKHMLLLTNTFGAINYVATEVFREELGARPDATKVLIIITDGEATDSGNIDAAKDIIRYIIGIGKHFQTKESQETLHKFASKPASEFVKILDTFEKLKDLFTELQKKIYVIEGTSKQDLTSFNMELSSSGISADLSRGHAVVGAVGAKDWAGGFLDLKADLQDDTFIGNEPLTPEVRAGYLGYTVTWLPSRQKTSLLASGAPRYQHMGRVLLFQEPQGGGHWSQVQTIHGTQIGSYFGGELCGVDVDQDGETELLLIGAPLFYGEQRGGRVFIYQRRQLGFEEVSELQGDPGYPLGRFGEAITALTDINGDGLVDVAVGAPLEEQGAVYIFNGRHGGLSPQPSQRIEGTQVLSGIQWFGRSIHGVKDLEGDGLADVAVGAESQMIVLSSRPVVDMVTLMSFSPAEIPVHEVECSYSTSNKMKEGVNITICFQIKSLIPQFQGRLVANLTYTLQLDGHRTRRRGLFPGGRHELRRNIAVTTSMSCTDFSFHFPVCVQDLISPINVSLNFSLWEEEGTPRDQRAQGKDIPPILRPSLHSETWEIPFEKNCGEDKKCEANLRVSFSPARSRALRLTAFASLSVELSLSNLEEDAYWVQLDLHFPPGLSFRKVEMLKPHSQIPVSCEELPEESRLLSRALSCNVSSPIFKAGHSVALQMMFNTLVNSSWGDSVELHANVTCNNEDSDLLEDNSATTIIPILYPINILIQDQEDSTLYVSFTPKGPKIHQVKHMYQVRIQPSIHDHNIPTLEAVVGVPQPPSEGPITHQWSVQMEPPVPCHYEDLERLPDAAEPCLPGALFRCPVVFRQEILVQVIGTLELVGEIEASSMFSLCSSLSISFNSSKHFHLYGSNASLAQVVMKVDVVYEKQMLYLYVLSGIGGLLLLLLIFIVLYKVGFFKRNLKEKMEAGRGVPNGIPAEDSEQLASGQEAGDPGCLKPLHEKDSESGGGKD

[2] = molecular target: Receptor of advanced glycosylation end-product (RAGE) (human (endogenous in SCC25 and FaDu)) (UniProt Q15109); assay: as above
[3] = molecular target: Receptor of advanced glycosylation end-product (RAGE) (human (endogenous in SCC25 and FaDu)) (UniProt Q15109); assay: co-IP; SCC25 and FaDu cells treated with recombinant GST-ISG15 alone or with HMGB1 for 2 h; GST-ISG15 pulled down by IP (Protein A/G magnetic beads with antibody, 4 C overnight); western blot for RAGE and CD11a; only the binder purified
[4] = molecular target: Receptor of advanced glycosylation end-product (RAGE) (human (endogenous in SCC25 and FaDu)) (UniProt Q15109); assay: co-IP; sequential IP: FaDu cells treated with recombinant His-ISG15, surface proteins biotinylated (EZ-Link Sulfo-NHS-SS-Biotin; un-biotinylated cells as control), lysed; anti-His magnetic beads 4 C overnight, glycine elution (pH 2.5), then streptavidin magnetic beads 4 C 4 h; western blot for CD11a, TLR2 and RAGE; only the binder purified
[5] = molecular target: Toll-like receptor 2 (human (endogenous in FaDu)) (UniProt O60603); assay: as above
[6] = molecular target: Receptor of advanced glycosylation end-product (RAGE) (human (endogenous in SCC25 and FaDu)) (UniProt Q15109); assay: co-IP; same system as a4 with the targets of IP and western blot switched: CD11a and RAGE pulled down, respectively, His-ISG15 detected by western blot (Fig. S6I); only the binder purified
[7] = molecular target: Receptor of advanced glycosylation end-product (RAGE) (human (endogenous in SCC25 and FaDu)) (UniProt Q15109); assay: co-IP; SCC25 and FaDu cells treated with recombinant His-ISG15 for 2 h (SCC25 also pre-treated with 10 uM FPS-ZM1 for 1 h); His-ISG15 pulled down by IP; western blot for RAGE and CD11a; only the binder purified

**Q.** What does the source list for “Recombinant human HMGB1 (His Tag) (from UniProt P09429 1-215)”?
**A.** binding [1]: no binding; binding [2]: binds

**Q.** Which binding [3] does the source give for “Human recombinant GST-ISG15 (from UniProt P05161 1-157)” here?
**A.** The binding was “binds”.

**Q.** Which binding [2] does the source give for “Extracellular ISG15 (as used in the co-IP of Fig. S6H) (from UniProt P05161 1-157)” here?
**A.** The binding was “binds”.

**Q.** “Human recombinant His6-ISG15 (from UniProt P05161 1-157)” was tested. Which binding [4] did it give?
**A.** Its binding is “binds”.

**Q.** And the binding [5]?
**A.** The binding was “no binding”.

**Q.** And the binding [6]?
**A.** Its binding is “binds”.

**Q.** And the binding [7]?
**A.** The binding was “binds”.
